# According to PubChem BioAssay AID504832 (National Center for Advancing Translational Sciences (NCATS), 2011):
# Where “and” joins values, the source holds several entries; their conditions need not be identical. Equal values may be shown once. Among all 310,000 compounds or so, about 18,000 (5.8%) were called active. The inconclusive results got no clear call from the source; some entries with a clear call stand among them for comparison. The call rests on the fitted dose curve; in most records, active means well fitted inhibition curve with a large enough effect; inconclusive means small, poorly fitted or top-dose-only effect, or another doubt; inactive means no such curve, though single readings can be large or run the other way. No potency is given beside an inconclusive call; the fits are too rough.
# Assay: Primary qHTS for delayed death inhibitors of the malarial parasite plastid, 48 hour incubation
# Conditions: P. falciparum luciferase growth in erythrocytes; series mostly up to 28.7 µM; activity change, negative = inhibition: at the top concentration
# In short: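 Luciferase-expressing P. falciparum in infected erythrocytes (2% hematocrit, 0.1% parasitemia final) in RPMI 1640/0.5% Albumax were exposed to compound for 48 hours at 37 C, 5% CO2; growth read as luminescence.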
# On the % scale 0 is the no-effect control and ±100 the full control effect; potency means the concentration at half of the fitted maximal effect; tags describe the fitted curve by direction and shape.
SMILES,"activity change, negative = inhibition",Potency
c1ccc(N2CCN(c3c4c(nc5ncnn35)CCC4)CC2)cc1,inactive: 13.3%,
Cc1nn(-c2ccccc2)c(C)c1NS(=O)(=O)c1ccccc1,,"inconclusive [inhibitor, partial curve, poor fit]"
CC1(C)CC(C(CC(=O)Nc2nccs2)c2ccccc2)CCO1 (stereo unspecified),,"inconclusive [inhibitor, single point]"
Oc1c(C(c2cccc(F)c2)N2CCN(Cc3ccccc3)CC2)sc2ncnn12 (stereo unspecified),,"inconclusive [inhibitor, single point]"
COc1cc(CNc2ncc(-c3ccc(Br)cc3)n2C)cc(OC)c1O,,"inconclusive [inhibitor, single point]"
COc1ccc(N(C)S(=O)(=O)c2ccc3c(c2)CC(C)N3C(=O)C2CC2)c(OC)c1 (stereo unspecified),,"inconclusive [inhibitor, single point]"
COc1ccc(CCNCc2c(OC)ccc3ccccc23)cc1,,"inconclusive [inhibitor, single point]"
Cc1cccc(Nc2ncnc3onc(-c4cccc(Cl)c4)c23)c1,,"inconclusive [inhibitor, single point]"
CC1CCCCC1NC(=O)c1nn(C)c(=O)c2ccccc12 (stereo unspecified),,"inconclusive [inhibitor, partial curve, poor fit]"
O=C(CN1CCN(c2ccccc2O)CC1)NC(=O)NCc1ccccc1,,"inconclusive [inhibitor, single point]"
COc1ccc(/C(O)=C2\C(=O)C(=O)N(c3cc(C)on3)C2c2cccc(OC)c2OC)cc1C (stereo unspecified),,"inconclusive [inhibitor, single point]"
COc1ccc(-c2nn(CC(=O)NCCc3ccccc3)c(=S)n2C)cc1,inactive: -10.1%,
CC(C)Cc1n[nH]c(=O)c2c1nnn2Cc1ccccc1F,,"inconclusive [inhibitor, partial curve, poor fit]"
O=C(O)c1cccc(N2C(=O)c3cc([N+](=O)[O-])cc4cc([N+](=O)[O-])cc(c34)C2=O)c1,,"inconclusive [inhibitor, partial curve, poor fit]"
Cc1ccc(-c2csc(N(CCCN3CCOCC3)C(=O)c3ccco3)n2)cc1,,"inconclusive [inhibitor, partial curve, poor fit]"
Cn1nc(-c2ccc(N3CCCCC3)c(NC(=O)c3ccco3)c2)c2ccccc2c1=O,,"inconclusive [inhibitor, partial curve]"
C/C(N)=C(/C#N)C(=O)COc1ncnc2ccccc12,inactive: 26.8%,
Cc1ccc(-c2noc(COc3ccc4c(c3)OCO4)n2)cc1,inactive: 5.6%,
CCOC(=O)C(NC(=O)c1ccccc1)(Nc1nnc(C)s1)C(F)(F)F (stereo unspecified),,"inconclusive [inhibitor, single point]"
CC(C)n1cnc2c(NCc3ccccc3)nc(NCc3ccccc3)nc21,,active: 9.28 µM
COC(=O)c1cc(C)sc1NC(=O)CCCC(=O)O,inactive: -2.2%,
CN(CC(=O)Nc1ccccc1N1CCCC1)S(=O)(=O)c1ccc(F)cc1,,"inconclusive [inhibitor, single point]"

SMILES,"activity change, negative = inhibition",Potency
Cc1cccc(-n2c(=O)[nH]c3c(C(N)=O)nc(C(C)C)nc32)c1,,"inconclusive [inhibitor, partial curve]"
COc1ccc(C(=O)Nc2ccc(Nc3ccccc3)cc2)cc1OC,,"inconclusive [inhibitor, full curve, poor fit]"
O=[N+]([O-])c1ccc(N2CCc3ccccc3C2)cc1,inactive: 37%,
CCN(CC(=O)Nc1ccc(NC(C)=O)cc1)C(=O)/C=C/c1ccc([N+](=O)[O-])cc1,,"inconclusive [inhibitor, partial curve, poor fit]"
C[C@@H]1[C@H]2[C@@H](O[C@@H]3O[C@H](CO)[C@@H](O)[C@H](O)[C@H]3O)OC=C(C(=O)O)[C@H]2C[C@@H]1O,inactive: 1.43%,
CCNC(=O)NC(=O)C(C)OC(=O)CCCc1nc2ccccc2s1 (stereo unspecified),inactive: -18.1%,
COC(OC)c1nc(SCC(=O)Nc2cccc(Cl)c2)ncc1C(=O)O,,"inconclusive [inhibitor, partial curve, poor fit]"
c1ccc(-c2cc(-c3ccccc3)n3ncnc3n2)cc1,,"inconclusive [inhibitor, partial curve, poor fit]"
Cn1c(NNC(=O)C(c2ccccc2)c2ccccc2)cc(=O)n(C)c1=O,inactive: 2.82%,
COc1ccc2cc(CN(Cc3cccnc3)S(=O)(=O)c3ccccc3)c(=O)[nH]c2c1,,active: 10.4 µM
CCOC(=O)c1cc(-c2ccccc2)sc1NC(=O)C(C)(C)C,,active: 9.28 µM
O=C(Nc1sc2c(c1C(=O)c1ccc(Cl)cc1)CCCC2)c1cccnc1,,"inconclusive [inhibitor, single point]"
Fc1cccc(Cl)c1CN1CCN(c2nc3ccccc3s2)CC1,inactive: 65.8%,
CCOC(=O)CSc1nc2sc3c(c2c(=O)n1-c1ccccc1)CCN(C)C3,,active: 4.65 µM
COc1ccc(NC(=O)COc2nc(N(C)C)nc(N(C)C)n2)cc1,,"inconclusive [inhibitor, full curve, poor fit]"
O=c1c2c(-c3ccc(Cl)cc3)csc2ncn1/N=C/c1cccc([N+](=O)[O-])c1O,,"inconclusive [inhibitor, single point]"
Cc1cc(=O)oc2cc(OC(C)C(=O)NCC3CCC(C(=O)O)CC3)ccc12 (stereo unspecified),inactive: -34.7%,
CN(C)CCOCCOc1ccccc1-c1ccccc1,,"inconclusive [inhibitor, partial curve, poor fit]"
COC(=O)C1=C(c2ccc(-c3ccccc3)c(F)c2)C[C@@H]2CC[C@H]1N2C(=O)NCCc1ccccc1,,active: 6.57 µM
CCOc1cc([C@@H]2C[C@H]3CN(c4ccccc4)C(=O)[C@]34CCCN24)ccc1OC,,"inconclusive [inhibitor, full curve]"
Cc1ccc2c(c1)C1CN(C)CCC1N2S(=O)(=O)c1cccc(C(F)(F)F)c1 (stereo unspecified),,"inconclusive [inhibitor, single point]"
COc1ccc(-c2cc(C(F)(F)F)n3ncc(C(=O)N(C)Cc4ccccc4)c3n2)cc1,,"inconclusive [inhibitor, partial curve, poor fit]"

SMILES,"activity change, negative = inhibition",Potency
Cc1cccc2cc(CN(Cc3ccco3)C(=O)c3cccs3)c(=O)[nH]c12,,active: 10.4 µM
COc1ccccc1-n1cc(-c2ccccc2)c2c(=S)nc[nH]c21,,active: 13.1 µM
CC(C)c1ccc(C2c3[nH]c4ccccc4c3C[C@H]3C(=O)N(c4ccccc4C(=O)N4CCC(C(=O)O)CC4)C(=O)N23)cc1 (stereo partly specified),,active: 1.65 µM
Cc1cc(N2CCN(c3cccc(C(F)(F)F)c3)CC2)n2nc(C)nc2n1,,"inconclusive [inhibitor, partial curve, poor fit]"
CN(CCOc1ccccc1)C(=O)c1cc(-c2ccco2)nc2ccccc12,,"inconclusive [inhibitor, single point]"
O=C1CCN(c2ncccc2[N+](=O)[O-])CC1,,"inconclusive [inhibitor, single point]"
CC(=O)Nc1ccc(OCC(O)CN2CCN(c3ccc(Cl)cc3)CC2)cc1 (stereo unspecified),,"inconclusive [inhibitor, single point]"
O=C(NC(=S)N1CCCCCC1)c1ccc(Cl)cc1Cl,,"inconclusive [inhibitor, single point]"
COc1ccccc1/C=C1\SC(=O)N(CC(=O)NCCCn2ccnc2)C1=O,,active: 11.7 µM
Cc1ccc2c(c1)C(c1ccccc1)N(C(=O)c1ccccc1)CC(=O)N2 (stereo unspecified),,"inconclusive [inhibitor, partial curve, poor fit]"
COc1cccc(-c2nn(-c3ccccc3)cc2CN(C)C(C)c2ccncn2)c1 (stereo unspecified),,"inconclusive [inhibitor, single point]"
COC(=O)C1=C(C)N(Cc2ccccc2)C(=NCCc2ccccn2)N[C@H]1c1cccc(F)c1,,active: 4.15 µM and active: 11.7 µM
CC1Cc2ccccc2N1CC(=O)NC(=O)NCc1ccco1 (stereo unspecified),,"inconclusive [inhibitor, single point]"
CN(C)S(=O)(=O)c1cccc(NC(=O)CN2C(=O)NC(Cc3ccccc3)C2=O)c1 (stereo unspecified),inactive: -7.34%,
COc1ccccc1C(=O)NCC(c1cccnc1)N(C)C (stereo unspecified),inactive: 5.59%,
CC(Sc1nc2ccccc2[nH]1)C(=O)NC1CCCCC1C (stereo unspecified),,"inconclusive [inhibitor, single point]"
Cc1ccc(Cl)cc1NC(=S)N(CCCN1CCN(C)CC1)Cc1cccs1,inactive: 0%,
COC(CSc1nc(N)c2c3c(sc2n1)CN(C)CC3)OC,,"inconclusive [inhibitor, full curve]"
COc1cccc(NC(=O)Cn2c3ccccc3c3nc4n(c(=O)c32)CCS4)c1,,"inconclusive [inhibitor, single point]"
CCc1ccccc1OCc1nc2ccc(S(=O)(=O)N3CCOCC3)cc2[nH]1,,"inconclusive [inhibitor, single point]"
O=c1c2ccccc2c(C=Nc2ccc(O)cc2)c(O)n1-c1nccs1,,"inconclusive [inhibitor, single point]"
Cc1ccc(-n2nc3c(N4CCC(C(=O)NCCc5ccco5)CC4)nnc(C)c3c2C)cc1,,"inconclusive [inhibitor, partial curve, poor fit]"
